Measured values taken from publication PMC4336329 (PLoS ONE, 2015).
Screen size: about 310,000 compounds; about 2,200 (0.71%) showed an effect of 50% or more. Effects have a minus sign here. Some of the results follow.

These compounds were tested against human ether-à-go-go-related gene (hERG) potassium channel (human, UniProt Q12809) (assay: primary screen, population patch clamp on CHO cells stably expressing hERG).
Sequence of human ether-à-go-go-related gene (hERG) potassium channel (Q12809 whole entry, looked up): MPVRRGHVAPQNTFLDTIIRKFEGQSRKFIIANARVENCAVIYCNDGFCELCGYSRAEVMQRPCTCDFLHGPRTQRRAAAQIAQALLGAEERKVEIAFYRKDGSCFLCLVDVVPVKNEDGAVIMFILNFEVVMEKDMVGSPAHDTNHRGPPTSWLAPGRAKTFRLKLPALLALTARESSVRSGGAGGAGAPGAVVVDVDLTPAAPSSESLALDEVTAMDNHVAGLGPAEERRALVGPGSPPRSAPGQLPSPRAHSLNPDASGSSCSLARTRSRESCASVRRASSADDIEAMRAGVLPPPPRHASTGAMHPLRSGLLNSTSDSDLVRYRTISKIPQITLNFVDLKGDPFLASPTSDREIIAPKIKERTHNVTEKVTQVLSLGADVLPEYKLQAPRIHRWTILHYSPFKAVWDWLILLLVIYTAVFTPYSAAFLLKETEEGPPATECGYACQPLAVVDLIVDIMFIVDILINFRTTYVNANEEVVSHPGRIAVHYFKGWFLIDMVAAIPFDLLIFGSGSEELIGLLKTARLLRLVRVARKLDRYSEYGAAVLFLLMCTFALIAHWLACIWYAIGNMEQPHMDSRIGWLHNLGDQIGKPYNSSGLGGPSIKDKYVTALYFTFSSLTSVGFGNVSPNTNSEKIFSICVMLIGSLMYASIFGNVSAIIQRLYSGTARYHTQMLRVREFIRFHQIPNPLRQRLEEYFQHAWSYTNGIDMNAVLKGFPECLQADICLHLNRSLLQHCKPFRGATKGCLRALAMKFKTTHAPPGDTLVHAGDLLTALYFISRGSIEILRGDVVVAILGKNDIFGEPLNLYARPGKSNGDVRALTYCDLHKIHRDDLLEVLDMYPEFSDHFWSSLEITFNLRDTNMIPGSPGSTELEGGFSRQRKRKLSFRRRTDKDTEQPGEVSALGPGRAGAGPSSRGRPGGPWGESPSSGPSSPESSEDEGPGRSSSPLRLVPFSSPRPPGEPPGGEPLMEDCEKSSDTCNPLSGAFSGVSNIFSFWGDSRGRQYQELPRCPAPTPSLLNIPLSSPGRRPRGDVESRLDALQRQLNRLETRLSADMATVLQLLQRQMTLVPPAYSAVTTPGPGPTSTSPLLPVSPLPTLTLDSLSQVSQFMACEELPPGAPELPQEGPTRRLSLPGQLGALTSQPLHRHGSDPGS

Compound | hERG current change (%, negative = inhibition) at 1uM [%]
COc1ccc(Cl)cc1CNCCCSc1ncccn1.Cl | 14.9
COCc1cc(=O)[nH]c(Nc2nc(C)c3cc(OC)ccc3n2)n1 | 10
Cc1ccccc1Cn1cc(NC(=O)c2nn(C)cc2Cl)cn1 | 8.33
CC(=O)c1cccc(NCC(=O)c2ccc(C)c([N+](=O)[O-])c2)c1 | 11
COc1ccc(N(CC(=O)N/N=C(\C)c2ccc(OC)c(OC)c2)S(=O)(=O)c2ccccc2)cc1 | 14.3
Cc1cccc(C)c1NC(=O)CSCc1cccc(CSCC(=O)Nc2c(C)cccc2C)n1 | 17.3
CCCCn1c(N)c(N(CC(C)C)C(=O)c2ccco2)c(=O)[nH]c1=O | 11.9
COc1ccc(N2CCN(C(c3ccccc3OC)c3nnnn3Cc3ccco3)CC2)cc1 (stereo not drawn) | 9.42
CCN(CC)C(=O)c1ccc(Oc2ccc([N+](=O)[O-])cc2Cl)cc1 | -1.5
CC1(C)CNC(=O)c2sc(N3CCCCC3)nc2C1 | 11.1
Cc1ccccc1OC(C)C(=O)N1CCN(c2ccccn2)CC1 (stereo not drawn) | 0.513
O=C(CCNC(=O)c1ccc(Cl)cc1)Nc1ccncc1 | -0.777
O=C(COC(=O)C1CC2C=CC1C2)Nc1ccccc1F (stereo not drawn) | 5.97
COc1ccc(S(=O)(=O)N2CCN(C(=O)CSC(=S)N3CCCC3)CC2)cc1 | 9
COCCN(C(=O)COC(=O)/C=C/c1cccs1)c1c(N)n(Cc2ccccc2)c(=O)[nH]c1=O | 12.9
CCC(C(=O)NC(C)(C)C)N(Cc1ccco1)C(=O)Cn1nnc(-c2ccc(F)cc2)n1 (stereo not drawn) | 8.34
Cn1cccc1Cc1nnc(SCC(=O)N2CCOCC2)n1CCc1ccccc1 | 5.79
O=C(COc1ccccc1C(=O)Nc1ccccc1)c1ccc(F)cc1 | 9.54
Nc1ccc(NC(=O)c2cccc(C(=O)Nc3ccc(N)cc3Cl)c2)c(Cl)c1 | 16.6
CCc1ccccc1OCCCOc1ccc(OC)cc1 | 16.1
Cc1ccc(-c2nn(-c3ccccc3)cc2C(=O)N2CCN(C3CCS(=O)(=O)C3)CC2)cc1 (stereo not drawn) | -33.5
Cc1[nH]c2ccccc2c1C(=O)CN1C(=O)NC2(CC(C)CC(C)(C)C2)C1=O (stereo not drawn) | 0.747

Compound | hERG current change (%, negative = inhibition) at 1uM [%]
Cc1ccc(N=Cc2c(O)ccc3ccccc23)cc1F | 18.4
CC1CCN(C(=O)COC(=O)C2CCN(S(=O)(=O)c3ccc(Cl)c(C(F)(F)F)c3)CC2)CC1 | 1.65
CCCc1nn(-c2ccccc2)c2c1C(c1cccs1)C(C#N)=C(N)O2 (stereo not drawn) | 3.84
COc1cccc(OC)c1C(=O)N1CC(C)OC(C)C1 (stereo not drawn) | 9.43
COc1ccc(C(=O)NC(=S)NNC(=O)c2c(-c3ccccc3)noc2C)cc1OC | 6.13
CCN1CCc2nc(NC(=O)c3ccccc3)sc2C1 | 16.3
Cc1ccc(Cl)cc1Nc1nc(-c2sc(NC(=O)c3cccc(Cl)c3)nc2C)cs1 | 19.9
N#Cc1c2n(c3c(N)ncnc13)CCCCC2 | 7.43
CCc1ccccc1NC(=O)CN(c1ccc(OC)cc1OC)S(=O)(=O)c1ccccc1[N+](=O)[O-] | 16.4
O=C1C(Cl)=C(NC2CCCCC2)C(=O)N1c1ccc(Cl)cc1 | 5.62
CC(NS(=O)(=O)OCC(Cl)(Cl)Cl)c1ccccc1 (stereo not drawn) | 14.5
C/C(CC(=O)N1CCN(C=O)CC1)=N\NC(=O)c1ccc(Cl)cc1 | 16.1
COc1ccc(NC(=O)CCC2COc3ccccc3O2)c(OC)c1 (stereo not drawn) | -5.45
Cn1c(SCC(=O)NCCNC(=O)CSc2nnc(C(F)(F)F)n2C)nnc1C(F)(F)F | 5.79
CCCN(S(=O)(=O)c1ccccc1F)S(=O)(=O)c1ccccc1Br | 11.3
Cc1cc2ccccn2c1C(=O)c1ccncc1 | -0.461
O=[N+]([O-])c1ccc(NC2CCN(Cc3ccccc3)CC2)c([N+](=O)[O-])c1 | -60
O=S(=O)(c1ccccc1)N1CCN(C/C=C/c2ccccc2)CC1 | 1.74
COc1cc(/C=c2\sc3nc(=O)c(-c4ccccc4)nn3c2=O)ccc1OCCC(C)C | 4.36
c1ccc(CSc2nnc(-c3cccs3)o2)cc1 | 5.53
COc1ccc(CCNC(=S)NC(=O)c2ccc(Br)cc2)cc1OC | 5.49
C=CCn1c(=O)/c(=C\c2ccccn2)s/c1=C(/C#N)C(=O)NCC1CCCO1 (stereo not drawn) | 5.33

Compound | hERG current change (%, negative = inhibition) at 1uM [%]
CSc1nnc([C@@H]2CCCN2C(=O)OC(C)(C)C)o1 | 13.9
Cc1c(-n2c(SCC(C)C)nc3ccccc3c2=O)c(=O)n(-c2ccccc2)n1C | 5.73
CC(C)OP(=O)(OC(C)C)C(NC(=O)c1ccccc1)C(N)=O (stereo not drawn) | -1.3
CCCCc1cc(=O)oc2cc(OCC(=O)NCCN3CCOCC3)c(Cl)cc12 | 11.6
COc1ccccc1C(=O)NC(=O)COc1ccc(Cl)cc1Cl | 6.45
CN(C)C(=O)/C(=C\c1cccc(Oc2ccccc2)c1)NC(=O)c1ccccc1 | 11.1
Cc1c(NC(=O)/C(C#N)=C/c2ccc(-c3ccccc3Cl)o2)c(=O)n(-c2ccccc2)n1C | 3
N#Cc1nc(-c2cccc3ccccc23)oc1N1CCCCC1 | 5.75
NC(=S)N/N=C/c1c(O)c(Br)cc2oc3c(c12)CCCC3 | 11.3
CCOC(=O)C1=C(N)N(c2cc(S(=O)(=O)N3CCOCC3)ccc2Cl)C(=O)C1 | 11.3
COc1ccccc1CNC(=O)c1ccc(-c2ccccc2)cc1 | 5.79
Cc1ccc2c(c1C)NC(C(=O)O)C1CC=CC21 (stereo not drawn) | 14.4
CCc1cccc(NC(=O)c2cnn(-c3ccccc3)c2C)c1 | -19.9
CCC1CCCCN1C(=O)c1sc2nc(C)nc(N(CC)CC)c2c1C (stereo not drawn) | 5.72
Clc1ccc(-c2nnc(COc3ncnc4sccc34)o2)cc1 | 8.77
CN(CC(=O)Nc1ccc(F)c(F)c1F)C(=O)CCCSc1nc2ccccc2[nH]1 | 8.51
CS(=O)(=O)c1ccc(C(=O)OCC(=O)NNC(=O)COc2ccc(Cl)cc2)cc1 | 14.6
CC1(c2ccc(OC(F)F)cc2)NC(=O)N(CC(=O)NC2CCCCC2)C1=O (stereo not drawn) | -23.2
COc1ccc(CCCc2nnc(SCC(=O)Nc3ccc(C)c(C)c3)o2)cc1 | -0.306
CC(C)c1ccc(/C=C/C(=O)O)cc1 | 8.72
COc1cc(/C=C/c2cc(OC(C)=O)c3ccccc3n2)c(OC(C)=O)c([N+](=O)[O-])c1 | 9.99
C/C(=N\NC(=O)c1c(Cl)cnn1C)c1cccc(NC(=O)COc2ccccc2)c1 | 9.23

Compound | hERG current change (%, negative = inhibition) at 1uM [%]
COc1ccccc1N1CCN(CCCCOc2ccc(C)cc2C)CC1.O=C(O)C(=O)O | -4.13
COc1cc(OC)cc(-c2nc3nc(C)c(CCC(=O)NCc4ccco4)c(C)n3n2)c1 | 5.21
CN1CCN(Cc2cc(=O)n3ccsc3n2)CC1 | 11.7
CCC(=O)c1cn([C@@H](CCC(OC)OC)CC(=O)OC(C)(C)C)cc1CC | 13
c1ccc(CSc2cc3ccccc3[nH]2)cc1 | 10.1
COc1cc(Nc2cc(C)nc3ncnn23)cc(OC)c1OC | 9.01
CC(C)OCCCNC(=O)Nc1cccc2ccccc12 | 1.49
CC(C)Cc1nc2oc3c(N4CCN(CCO)CC4)ncnc3c2c2c1CCCC2 | 0.842
Cc1ccc(NC(=O)c2cccc(OCc3c(C)noc3C)c2)cc1 | -0.977
NC(=O)CSc1oc(-c2ccco2)nc1S(=O)(=O)c1ccc(F)cc1 | 13.3
Cc1n[nH]c(C)c1N1C(=O)c2cccc3c(N4CCCCCC4)ccc(c23)C1=O | 8.88
O=C1CC(N2CCC(n3c(=O)[nH]c4ccccc43)CC2)C(=O)N1c1ccc(F)cc1 (stereo not drawn) | 7.15
Cc1ccccc1NC1(C#N)C(=O)Nc2ccccc21 (stereo not drawn) | 13.4
Cc1sc(NC(=O)CSc2nnnn2C2CCCCC2)c(C#N)c1C | 6.31
COc1ccc(C2=Nn3c(nnc3-c3ccncc3)SC2)cc1OC | -40.3
CC(C)(C)c1ccc(C(=O)Nc2ccc(Oc3cccnc3)nc2)cc1 | -3.27
COc1ccc(/C=C2\CCCC3C2=NN(C(=O)CSc2ncn[nH]2)C3c2ccc(OC)cc2)cc1 (stereo not drawn) | 16.5
COc1ccc(CC(=O)N/N=C(\C)c2cccnc2)cc1OC | 3.32
COc1cccc(N2CC(C(=O)Nc3nnc(SCc4ccccn4)s3)CC2=O)c1 (stereo not drawn) | 9.96
CCN(CC)S(=O)(=O)c1cc(NS(=O)(=O)c2ccc(Cl)c(C(=O)O)c2)ccc1C | 7.28
O=C(CCN1C(=O)C2CCCCC2C1=O)Nc1ccc(OC(F)F)cc1 (stereo not drawn) | 7.34
